Test results published in paper PMC4336329 (PLoS ONE, 2015).
Screen size: about 310,000 compounds; about 14,000 (4.5%) showed an effect of 50% or more. The effect is printed as a negative number. The list shows a part of the results.

Biological target: human ether-à-go-go-related gene (hERG) potassium channel (human, UniProt Q12809)
Test: primary screen, population patch clamp on CHO cells stably expressing hERG
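Also: peak tail current of the secondary pulse compared with the same well before compound.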

Chain of human ether-à-go-go-related gene (hERG) potassium channel (Q12809 whole entry, looked up): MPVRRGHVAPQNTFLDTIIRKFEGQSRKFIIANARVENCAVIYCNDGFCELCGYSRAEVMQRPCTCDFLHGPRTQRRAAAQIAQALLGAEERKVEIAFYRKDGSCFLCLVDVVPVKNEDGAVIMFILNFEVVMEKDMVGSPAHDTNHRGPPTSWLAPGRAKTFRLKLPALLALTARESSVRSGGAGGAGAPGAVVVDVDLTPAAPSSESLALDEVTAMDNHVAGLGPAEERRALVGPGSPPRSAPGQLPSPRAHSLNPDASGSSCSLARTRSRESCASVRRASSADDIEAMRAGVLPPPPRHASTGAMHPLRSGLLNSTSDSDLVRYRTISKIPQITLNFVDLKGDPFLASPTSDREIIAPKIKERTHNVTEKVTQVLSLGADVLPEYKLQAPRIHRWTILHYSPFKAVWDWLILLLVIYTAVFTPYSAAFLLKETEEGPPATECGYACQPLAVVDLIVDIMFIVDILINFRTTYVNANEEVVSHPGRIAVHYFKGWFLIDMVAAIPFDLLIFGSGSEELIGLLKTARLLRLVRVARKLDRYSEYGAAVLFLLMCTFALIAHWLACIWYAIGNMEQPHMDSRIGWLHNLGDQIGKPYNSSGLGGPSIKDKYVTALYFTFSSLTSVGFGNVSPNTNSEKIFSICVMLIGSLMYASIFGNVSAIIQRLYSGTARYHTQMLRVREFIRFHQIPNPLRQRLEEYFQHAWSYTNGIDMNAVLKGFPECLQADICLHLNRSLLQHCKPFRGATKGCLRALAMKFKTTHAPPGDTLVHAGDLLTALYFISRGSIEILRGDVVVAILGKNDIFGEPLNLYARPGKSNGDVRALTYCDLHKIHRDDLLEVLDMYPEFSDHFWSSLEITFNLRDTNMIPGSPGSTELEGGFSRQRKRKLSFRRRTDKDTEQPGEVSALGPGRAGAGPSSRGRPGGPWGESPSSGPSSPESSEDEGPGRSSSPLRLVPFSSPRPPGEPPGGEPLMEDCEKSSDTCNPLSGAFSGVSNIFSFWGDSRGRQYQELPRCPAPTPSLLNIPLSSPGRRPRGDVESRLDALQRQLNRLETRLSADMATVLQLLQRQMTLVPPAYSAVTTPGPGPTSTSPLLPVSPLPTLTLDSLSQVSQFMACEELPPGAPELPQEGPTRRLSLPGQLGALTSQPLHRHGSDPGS

Compared with `Nc1ncnc(Nc2ccc(F)cc2)n1`, `Cc1cccc(NC(=S)N2CCN(c3ccc(F)cc3)CC2)c1` is lower in “hERG current change (%, negative = inhibition) at 10uM” value: 5.46% for the first, 2.16% for the second.

Going from `COc1ccc(-c2csc(NC(=O)CSCc3c(C)noc3C)n2)cc1OC` to `COc1ccc(-c2nnc3ccc(SCC(=O)Nc4nc5ccccc5s4)nn23)cc1OC`, the “hERG current change (%, negative = inhibition) at 10uM” value falls from -4.4% to -11.9%.

Going from `CCC1=NN(S(=O)(=O)c2ccc(C)cc2)C(O)(C(F)(F)F)C1` (stereo not shown) to `Cc1[nH]c(C)c(S(=O)(=O)Nc2ccc(OC(F)(F)F)cc2)c1C(=O)N1CCCCC1`, the “hERG current change (%, negative = inhibition) at 10uM” value falls from 34.4% to -7.79%.

Compared with `CCOC(=O)C1=C(C)OC(N)=C(C(=O)OCC)C12C(=O)Nc1ccc(Br)cc12` (stereo not shown), `CCOC(=O)[C@H]1[C@H]2COc3ccc(Br)cc3[C@@H]2N2C(=O)c3cc(Br)ccc3NC(=O)[C@@]12C` is higher in “hERG current change (%, negative = inhibition) at 10uM” value: -7.78% for the first, 12.6% for the second.

First: CCCCNC(=O)CN1C(=O)COc2ccc(S(=O)(=O)N3CCCCCC3)cc21
Second: COc1ccc(S(=O)(=O)N2CCCCCC2)cc1C(=O)N(C)CC(=O)Nc1ccc(Cl)c(Cl)c1
The “hERG current change (%, negative = inhibition) at 10uM” value of the first is higher: -1.25% for the first, -10.4% for the second.

Going from `CC1(C)c2ccccc2N2CC(=O)N(CC(N)=O)C21C` (stereo not shown) to `COC(=O)CN1C(=O)NC2(CCCc3ccccc32)C1=O` (stereo not shown), the “hERG current change (%, negative = inhibition) at 10uM” value rises from 0.123% to 0.795%.

First: O=C(NCc1ccc(Cl)cc1)c1ccc(CS(=O)Cc2cccc(Cl)c2)o1 (stereo not shown)
Second: O=S(=O)(NCc1ccc(Cl)cc1)NCc1ccc(Cl)cc1
The “hERG current change (%, negative = inhibition) at 10uM” value of the first is lower: -53.5% for the first, 12.7% for the second.

First: Cc1ccc(NS(=O)(=O)c2cccc(C(=O)NNC(=O)NC3CCCCC3)c2)c(C)c1
Second: CN(C)S(=O)(=O)c1cc(C(=O)Nc2ccccc2C(=O)NC2CC2)ccc1Cl
The “hERG current change (%, negative = inhibition) at 10uM” value of the first is higher: -14.8% for the first, -62.2% for the second.

Going from `CS(=O)(=O)N1CCN(C(=O)c2cc(-c3cccnc3)nc3ccc(Br)cc23)CC1` to `Cc1cc(C)c2nc(-c3ccccn3)cc(C(=O)N3CCCC3)c2c1`, the “hERG current change (%, negative = inhibition) at 10uM” value rises from -17% to 5.63%.

Going from `CCOc1cc2[nH]c(=O)n(CCCCC(=O)NCc3ccco3)c(=O)c2cc1OCC` to `CCCCN(C(=O)CSCC(=O)Nc1ccc(OC)cc1)c1c(N)n(CCC)c(=O)[nH]c1=O`, the “hERG current change (%, negative = inhibition) at 10uM” value rises from 8.55% to 9.82%.

Compared with `CC1(C)C2CCC1(C)C(OC(=O)CCn1ccnc1)C2` (stereo not shown), `CC1CCCC(C)N1C(=O)COC(=O)c1nn(C)c(=O)c2ccccc12` (stereo not shown) is higher in “hERG current change (%, negative = inhibition) at 10uM” value: -25.5% for the first, 1.93% for the second.

First: CC(NC(=O)CSC(=S)N1CCCC1)c1ccc(S(N)(=O)=O)cc1 (stereo not shown)
Second: CCC(C)c1ccc(NC(=O)N2CCN(C(=O)C3CCCO3)CC2)cc1 (stereo not shown)
The “hERG current change (%, negative = inhibition) at 10uM” value of the first is higher: 7.66% for the first, -5.31% for the second.

First: O=C(CNC(=O)c1cccs1)OCc1c(F)cccc1Cl
Second: Cc1ccc(-n2c(CNC(=O)c3cccs3)nnc2SCC(=O)NO)cc1
The “hERG current change (%, negative = inhibition) at 10uM” value of the first is higher: 12.8% for the first, 12.1% for the second.

Compared with `CCOC(=O)c1c(NC(=S)N2CCCCC2)sc2c1CCN(C(=O)OCC)C2`, `Cc1cccc(NC(=S)N2CCC(C(N)=O)(N3CCCCC3)CC2)c1C` is higher in “hERG current change (%, negative = inhibition) at 10uM” value: -1.16% for the first, 23.9% for the second.

First: COC(=O)/C=C/C(=O)Nc1ccc(O)c(Cl)c1
Second: Cc1ccccc1NC(=O)CNc1ccc(Cl)c(C(F)(F)F)c1
The “hERG current change (%, negative = inhibition) at 10uM” value of the first is lower: 8.61% for the first, 13.5% for the second.

First: COc1ccccc1S(=O)(=O)Nc1cc(C)nn1-c1ccc(C)cc1
Second: Cc1cc(C)n2nc(S(=O)(=O)NCCc3ccccc3)nc2n1
The “hERG current change (%, negative = inhibition) at 10uM” value of the first is higher: 3.18% for the first, 0.291% for the second.

Going from `O=C1C2C3C=CC(C4CC34)C2C(=O)N1Cc1ccccc1` (stereo not shown) to `O=C(Nc1cccc(Cl)c1)OCCN1CCN(Cc2ccccc2)CCC1=O`, the “hERG current change (%, negative = inhibition) at 10uM” value falls from 19.9% to -30.6%.

Compared with `CCOc1ccc(CNC(=O)CCC(=O)n2nc(C)c3ccccc32)cc1`, `CCN(CC(=O)NCc1ccc(Cl)cc1)C(=O)CCC(=O)c1ccc(C)cc1` is lower in “hERG current change (%, negative = inhibition) at 10uM” value: 8.16% for the first, -66.5% for the second.

Going from `Cc1ccc(-c2nc(CSCC(=O)NCc3cccnc3)c(C)o2)cc1` to `Cc1ccccc1CSc1nnc(-c2ccncc2)n1C`, the “hERG current change (%, negative = inhibition) at 10uM” value rises from -15.3% to 9.26%.

First: CSc1nnc(NC(=O)c2ccc(S(=O)(=O)N3CCOCC3)cc2)s1
Second: CN(C)S(=O)(=O)c1ccc(C(=O)Nc2ccccc2C(=O)NCCCN2CCOCC2)cc1
The “hERG current change (%, negative = inhibition) at 10uM” value of the first is higher: 9.98% for the first, -4.13% for the second.

Going from `O=C(CCCOc1ccc(Cl)cc1Cl)NN1CCOCC1` to `O=C(NCCCN1CCOCC1)C(=O)NCc1ccc(Cl)cc1`, the “hERG current change (%, negative = inhibition) at 10uM” value falls from -1.05% to -7.65%.

Going from `Cc1ccc2[nH]c(=O)c(C(c3nnnn3Cc3ccccc3)N3CCc4ccccc43)cc2c1` (stereo not shown) to `O=C(O)CCc1nn2c3ccccc3nc2n(-c2ccccc2)c1=O`, the “hERG current change (%, negative = inhibition) at 10uM” value rises from -15.7% to -2.32%.

Going from `Cn1c(=O)c2c(SCC(=O)N3CCCC3)nc(CC(C)(C)C)nc2n(C)c1=O` to `CCCc1cc(=O)[nH]c(SCC(=O)C(C)(C)C)n1`, the “hERG current change (%, negative = inhibition) at 10uM” value rises from -22.6% to 15%.

Going from `Cc1ccc(C(C)C)c(OCC(=O)N2CCN(CC(=O)N3CCOCC3)CC2)c1` to `Cc1ccc(NC(=O)CN2CCN(CCN=CC3=C(O)CC(C)(C)CC3=O)CC2)cc1`, the “hERG current change (%, negative = inhibition) at 10uM” value falls from 1.81% to -19.3%.

First: CN(C)S(=O)(=O)c1cccc(COC(=O)CN2C(=O)NC3(CCCC3)C2=O)c1
Second: CCOC(=O)N1CCN(C(=O)c2ccc(CS(=O)(=O)c3ccccc3OC)o2)CC1
The “hERG current change (%, negative = inhibition) at 10uM” value of the first is higher: -1.31% for the first, -6.01% for the second.

Going from `COc1ccc(Cl)cc1NC(=O)CN(C)Cc1cccs1` to `O=C(CCNc1cccc(Cl)c1)c1ccco1`, the “hERG current change (%, negative = inhibition) at 10uM” value falls from -2.71% to -30.2%.

Going from `C[N+]1(C2CCC3CCCC2C3O)CCCC1.[I-]` (stereo not shown) to `CC1CCCN(S(=O)(=O)c2csc(C(N)=O)c2)C1` (stereo not shown), the “hERG current change (%, negative = inhibition) at 10uM” value rises from -1.33% to 15.2%.

Going from `CNc1nc(OCC(F)(F)F)nc(OCC(F)(F)F)n1` to `O=C(CSc1nc2ccncc2[nH]1)Nc1ccccc1C(F)(F)F`, the “hERG current change (%, negative = inhibition) at 10uM” value rises from -15.5% to -4.07%.

Going from `COc1ccc2c(=O)c(C(=O)NCCc3ccccc3)c[nH]c2c1` to `CCNC(=O)NC(=O)C(C)Sc1nc2cc(C(=O)OC)ccc2c(=O)n1-c1ccccc1` (stereo not shown), the “hERG current change (%, negative = inhibition) at 10uM” value falls from -7.4% to -17.9%.

First: CC(=O)c1sc(-c2cccc(Cl)c2)nc1C
Second: CCSc1nnc2nc3[nH]c4c(C)cccc4c3nn12
The “hERG current change (%, negative = inhibition) at 10uM” value of the first is higher: 33.3% for the first, 0.372% for the second.

Going from `COC(=O)C1CCCN1S(=O)(=O)c1ccccc1NC(=O)c1cc(OC)c(OC)c(OC)c1` (stereo not shown) to `COc1cc(C(=O)N2C(=O)CCC2=O)cc(OC)c1OC`, the “hERG current change (%, negative = inhibition) at 10uM” value rises from 10.9% to 28.7%.

Going from `Cc1cc(=O)oc2cc(O[C@@H]3O[C@H](CO)[C@@H](O)[C@H](O)[C@H]3O)ccc12` to `CC(=O)Oc1ccc(C(=O)[C@H]2[C@H]3C(=O)N(c4ccc(C)cc4C)C(=O)[C@H]3[C@@H]3C=CC=NN32)cc1`, the “hERG current change (%, negative = inhibition) at 10uM” value falls from 14.1% to 8.69%.

First: CCCNC(=O)N1CCCC(C(N)=O)C1 (stereo not shown)
Second: Cc1ccccc1OCC(=O)NNC(=O)C1CCN(c2ncnc3sc(C)c(C)c23)CC1
The “hERG current change (%, negative = inhibition) at 10uM” value of the first is higher: 21.5% for the first, -19.3% for the second.

First: C=CCc1ccccc1OCCSc1nc2ccc([N+](=O)[O-])cc2s1
Second: C(=N\NCc1ccccc1)/c1ccc2nccnc2c1
The “hERG current change (%, negative = inhibition) at 10uM” value of the first is higher: 11% for the first, -1.82% for the second.

First: O=C(CN(Cc1ccccc1)C(=O)CCC(=O)Nc1nccs1)NCc1ccco1
Second: Cc1ccc(C(=O)OCC(=O)Nc2nc(-c3ccccc3)cs2)cc1NC(=O)c1ccco1
The “hERG current change (%, negative = inhibition) at 10uM” value of the first is higher: -5.77% for the first, -23.1% for the second.

Going from `C=CCOc1ccc(/C=C/C(=O)OCC(=O)N2CCCc3ccccc32)cc1` to `COc1ccc(CNC(=O)C2CCN(S(=O)(=O)c3cccc4nonc34)CC2)cc1`, the “hERG current change (%, negative = inhibition) at 10uM” value rises from -4.28% to -0.634%.

Compared with `COc1ccc(S(=O)(=O)NCC(c2cccnc2)N2CCN(C)CC2)cc1OC` (stereo not shown), `COc1cc(CN(C)CC2CCCN(CCc3ccccc3F)C2)cc(Cl)c1OC` (stereo not shown) is lower in “hERG current change (%, negative = inhibition) at 10uM” value: 10.7% for the first, -69.8% for the second.

Going from `COc1cc(Br)c(C2CC(=O)Nc3cc(OC)c(OC)cc32)cc1OC` (stereo not shown) to `COc1ccc(-c2c(-c3ccccc3OC)sc3ccccc23)cc1OC`, the “hERG current change (%, negative = inhibition) at 10uM” value rises from 7.69% to 9.81%.

Compared with `CC(=O)N1c2c(cc(Br)cc2S(=O)(=O)N2CCOCC2)CC1C` (stereo not shown), `COc1ccc(N2C(=O)CC(N3CCN(c4ccc(Cl)cc4)CC3)C2=O)cc1` (stereo not shown) is lower in “hERG current change (%, negative = inhibition) at 10uM” value: -0.158% for the first, -4.94% for the second.

Compared with `Cc1[nH][nH]c(=O)c1C(c1ccc(Br)cc1)c1c(C)[nH][nH]c1=O.Cl`, `Cc1cc(C)c2c(C)c(C(=O)NCc3ccc(S(N)(=O)=O)cc3)oc2c1` is higher in “hERG current change (%, negative = inhibition) at 10uM” value: 3.87% for the first, 29.4% for the second.

First: N/C(=N\N=C\c1ccc(Br)o1)c1nonc1N
Second: NC(=O)c1ccccc1N=Cc1cccnc1
The “hERG current change (%, negative = inhibition) at 10uM” value of the first is higher: 13% for the first, -21% for the second.

Going from `O=C(N/N=C/c1ccccc1Cl)C1CC1` to `Cn1c(=O)[nH]c(=O)c2c1nc(Br)n2C/C=N/NC(=O)c1ccccc1`, the “hERG current change (%, negative = inhibition) at 10uM” value rises from 4.02% to 6.13%.

First: O=S(=O)(NCC1COc2ccccc2O1)c1ccc2ccccc2c1 (stereo not shown)
Second: O=C1OCC(Cn2c3ccccc3c3ccccc32)O1 (stereo not shown)
The “hERG current change (%, negative = inhibition) at 10uM” value of the first is higher: 17.3% for the first, -7.48% for the second.

Compared with `CCc1ccccc1NC(=S)NCc1cccn1C`, `CN1C(=O)c2cccc(NCCCCCCN3C(=O)c4ccccc4C3=O)c2C1=O` is lower in “hERG current change (%, negative = inhibition) at 10uM” value: 10.7% for the first, 5.41% for the second.
